Results published in PubChem BioAssay AID1508623 (National Center for Advancing Translational Sciences (NCATS), 2021).
The whole screen tested about 48,000 compounds, of which about 450 (0.94%) were called active. Roughly 19% stayed inconclusive and do not appear here. Calls come from the whole dose curve; as a rule, active = well fitted inhibition curve with a large enough effect; inconclusive = small, poorly fitted or top-dose-only effect; inactive = no such curve, though single readings can be large or run the other way. The list shows a part of the results.

Test: Primary qHTS for Identification of Small Molecule Inhibitors of Huntingtin Promoter Activity; note: nearly all actives have a fitted effect of over 50% in size
Settings: HEK293 HTT promoter firefly luciferase reporter (activity 0% = vehicle and -100% = no light), 24 h; series mostly up to 57.5 µM; activity change, negative = inhibition: at the top concentration
Outline: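 Luminescence was read after Dual-Glo reagent and a 10 min room-temperature incubation. Values were normalized to vehicle (0% activity) and zero RLU (-100% activity). Reporter HEK293 cells had been exposed to compounds (up to 57.5 uM final) for 24 h.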

Activity change, negative = inhibition, inactive:
Cc1nnc(N2CCN(C(=O)NC(C)C)CC2)c2nn(-c3ccccc3)c(C)c12 -5.82%
COc1ccc(C)cc1NC(=O)c1ccc2c(SCC(=O)O)c3c(nc2c1)CCCC3 -49.3%
CCOc1ccc(NC(=O)C2CC(=O)N(c3ccc(C(C)C)cc3)C2)cc1 (configuration not stated) -1.72%
Cn1c(=O)n(-c2ccc3c(c2)OCO3)c2nc(-c3ccccc3)nc(C(N)=O)c21 -8.81%
COc1cccc2c1cc1c(=O)n(CC(=O)N3CCN(c4cccc(C)c4)C(C)C3)nc(C)n12 (configuration not stated) -2.53%
Cc1cc(C)cc(NC(=O)CSc2cc(C)[nH]c(=O)n2)c1 -0.653%
CCOC(=O)CC(NC(=O)Cn1nnc(-c2ccc(C(F)(F)F)cc2)n1)c1ccc(OC)cc1 (configuration not stated) -22.9%
CC(=O)Nc1ccc(-c2cc(C(=O)O)c3c(-c4ccccc4)[nH]nc3n2)cc1 -4.76%
COc1ccc(C(=O)N2CCN(Cc3cc(=O)n4nc(-c5ccccc5C)sc4n3)CC2)cc1OC -22.5%
CCCCNC(=O)c1nn(-c2ccc(CC)cc2)nc1CO -4.05%
CC1CCC(NC(=O)c2ccc3c(c2)N(Cc2cccc(Cl)c2)C(=O)c2ccccc2S3(=O)=O)CC1 (configuration not stated) -12.6%
CCc1ccccc1NC(=O)Cn1nnc(C(=O)NCc2ccccc2Cl)c1N -21.3%
CCN(CC)CC(C)CNC(=O)c1cc(-c2ccc(Br)s2)nc2ccccc12 (configuration not stated) -17.8%
CCN(CC)CCCNC(=O)CN1C(=O)CCn2nc(-c3cn(C)c4ccccc34)cc21 0%
COc1ccc(-c2nc3c4ccccc4n(CC(=O)N4CCN(c5ccccc5OC)CC4)c(=O)n3n2)cc1 -11%
COc1cccc(-n2c(=O)c3c4c(sc3n(Cc3ccc(C)cc3)c2=O)CCCC4)c1 11.3%
Cc1ccc2nc(-c3ccccc3F)c(Nc3ccc(Cl)cc3)n2c1 -17.8%
Cc1nnc(NC(=O)CSCc2cc(=O)c3cc(Cl)ccc3[nH]2)s1 7.41%
Cc1ccc(C(=O)c2cn(CC(=O)NC3CCCCC3)c3nc(C)ccc3c2=O)cc1 3.64%
Cc1c(C(=O)N2CCCC2)oc2c1-c1nn(CC(=O)NCCCOC(C)C)cc1CC2 -17.9%
O=C(NC1CC(=O)N(c2cccc(F)c2)C1)C1CCCC1 (configuration not stated) 3.18%
COc1cc(-c2nc(Cn3nnc(C(=O)Nc4ccccc4)c3C)c(C)o2)cc(OC)c1OC -20.4%
COc1ccccc1-n1ncc2c(=O)[nH]c(SCC(=O)Nc3ccc(Cl)cc3)nc21 -32.5%
Cc1ccc(CNC(=O)c2cccn2-c2nnc(N3CCCCC3)s2)cc1 -12.9%
O=C(Nc1cc2c(cc1C(=O)c1ccccc1)OCCO2)c1ccc(Br)cc1 -7.62%
CN(C)CCN(Cc1ccccc1)S(=O)(=O)c1ccc2[nH]c(=O)ccc2c1 -19.8%
O=C(c1cccn1-c1nnc(N2CCCC2)s1)N1CCN(c2ccccc2)CC1 -18.9%
CCOC(=O)COc1ccc2c(C)c(CCN(CC)CC)c(=O)oc2c1Cl 11%
Cc1ccccc1-c1nc(SCC(=O)NCc2ccco2)c2c(=O)n(C)c(=O)n(C)c2n1 15.3%
COc1ccc2oc(=O)c(-c3csc(-c4ccc(Br)cc4)n3)cc2c1 -6.33%
COc1cccc(-n2cc(C(=O)NCCc3ccc(C)cc3)c3ccccc3c2=O)c1 -16.8%
COc1ccc(C2(Nc3cccc(C(=O)O)c3C)C(=O)c3ccccc3C2=O)cc1 -2.77%
O=C(/C=C\c1ccc2c(c1)OCO2)NC1CC(=O)N(c2ccc(Cl)cc2)C1 (configuration not stated) -2.98%
COc1ccc(-c2csc3nc(-c4ccccc4C)oc(=O)c23)cc1OC -9.93%
Cc1ccc(NC(=O)C2CCN(S(=O)(=O)c3c(C)noc3C)CC2)c(C)c1 -9.33%
CC(=O)N1CCOc2cc(S(=O)(=O)NCc3ccc(C)cc3)c(Cl)cc21 -12.3%
CCOc1ccccc1NC(=O)c1cc(=O)c2ccc(C)cc2o1 -17.4% [at 11.5 µM]
O=C(Cc1cccs1)NC1CC(=O)N(c2cccc(F)c2)C1 (configuration not stated) 5.4%
COc1cccc(C(=O)Nc2ccc3nc(SCC(=O)N4CCOCC4)sc3c2)c1 -15.9%
Cn1c(=O)n(C)c2cc(NS(=O)(=O)c3ccc(F)cc3)ccc21 -1.62%
COc1cc2nc(NCCC(C)C)n3nc(-c4ccccc4)nc3c2cc1OC -8.8%
Cc1cc(C)n2c(Nc3ccc(Cl)cc3)c(-c3ccsc3)nc2n1 -21.9%
Cc1ccc2c(CN3CCN(C(=O)c4ccc(F)cc4)CC3)cc(=O)oc2c1 -10.3%
Cc1ccc(OCC(=O)N(c2ccc(C)cc2)S(=O)(=O)c2ccc(Cl)cc2)cc1 -29.6%
CCc1c2c(nc3ccc(OC(=O)N4CCC(N5CCCCC5)CC4)cc13)-c1cc3c(c(=O)n1C2)COC(=O)[C@]3(O)CC
O=C(CS(=O)(=O)c1cccc2nsnc12)Nc1ccccc1 -0.807%
COc1ccccc1CNC(=O)CN1C(=O)COc2ccc(S(=O)(=O)Nc3ccccc3)cc21 -21.4%
CC(C)(C)c1ccc(C(=O)NCCc2csc3nc(-c4ccccc4F)nn23)cc1 0%
CSCCC(NS(=O)(=O)c1ccc2c(c1)oc(=O)n2C)C(=O)N1CCN(c2cc(C)ccc2C)CC1 (configuration not stated) -11.8%
COc1ccc(C2CC(=O)NC(NC(=O)c3ccc(Br)cc3)=N2)c(OC)c1OC (configuration not stated) -20.9%
O=C(Nc1cc(-c2nc3ccccc3s2)ccc1Cl)c1cc2ccccc2o1 21.3%
O=S(=O)(Nc1ccccc1C(F)(F)F)c1ccc(N2CCCCS2(=O)=O)cc1 -25.3%
COc1cc(/C=C/c2nc(C#N)c(N3CCCCCC3)o2)cc(OC)c1OC -14.9%
COc1ccc(Cl)cc1NS(=O)(=O)c1ccc2[nH]c3c(c2c1)CCCC3 -17.8%
Cc1cccc(C)c1NC(=O)Cn1c(=O)n(Cc2ccccc2)c(=O)c2c(C)c(C(=O)N(C)C)sc21 -13.1%
Cc1ccc(Cl)cc1-n1c(=O)cc(N2CCN(c3ccc(F)cc3)CC2)[nH]c1=O -24.7%
Cc1cc(C)c2oc(C(=O)Nc3ccc(S(=O)(=O)N4CCCCC4)cc3)cc(=O)c2c1 19.6%
CC(=O)N(Cc1cccnc1)c1nc2c(F)cc(F)cc2s1 -21.1%
Cn1c(=O)c2c(-c3ccc(Cl)cc3)n(Cc3ccccc3)cc2n(C)c1=O -23.1%
O=C(O)Cn1nnc(-c2ccc(OCc3cccc(C(F)(F)F)c3)cc2)n1 -6.8%
CCOC(=O)c1cc(S(=O)(=O)Nc2ccc(C)cc2Cl)[nH]n1 -7.99%
O=C(CSc1nccn1Cc1ccco1)Nc1ccc(F)cc1 -3.68%
COc1ccc(CNC(=O)CSc2nc3ccccc3nc2Cc2ccccc2)cc1 -19.6%
COc1ccc(Cn2c(CCC(=O)NCc3cccc(Cl)c3)nc3cccnc32)cc1 -18.1%
COc1cccc(/C=C/c2nc(C#N)c(NCCN(C)C)o2)c1 -13.4%
CCc1ccc(NC(=O)Cc2c(C(=O)O)c(C)cn2C)cc1 -7.7%
Cc1ccccc1Nc1c(-c2ccc(Br)o2)nc2ccc(Cl)cn12 -24%
COc1cc(OC)c(NC(=O)c2cc(C)nc3c2c(C)nn3-c2ccc(C)cc2)cc1Cl -3.1%
Cc1ccc(NC(=O)CCN2CCN(CCO)CC2)cc1C -6.47%
COc1ccc(CCNC(=O)c2ccc3c(c2)N(Cc2ccc(Cl)cc2)C(=O)c2ccccc2S3)cc1OC -27.1%
CCOc1ccc(-c2nn(CC(=O)NC3CCCC3)c3c2cnc2ccc(C)cc23)cc1 -23%
CCN(Cc1nc(-c2ccc(OC)cc2)oc1C)S(=O)(=O)c1ccc(C)cc1 -5.61%
CC(=O)c1ccc(NC(=O)Cn2c(-n3nc(C)cc3C)nc(C)c(C)c2=O)cc1 -19.1%
CCOc1ccccc1Nc1nnc(-c2cc3cc(OC)ccc3oc2=O)s1 12.1%
CCOC(=O)Cc1ccc(NC(=O)N2CCC(CN3CCCCCC3)CC2)cc1 -8.22%
CCc1ccc(Oc2c(C(F)(F)F)oc3c(CN4CCC(C)CC4)c(O)ccc3c2=O)cc1 -9.67%
COc1cccc(CSc2nc3n(n2)C(CC(C)C)C(C(=O)Nc2ccccc2OC)=C(C)N3)c1 (configuration not stated) -7.46%
CCCCN(CC)CCCNC(=O)Cn1ncc2c3ccccc3n(C)c2c1=O 10.8%
COc1ccc(C(=O)N2CCC(C(=O)Nc3ccc(Cl)cc3)CC2)cc1 -30.1%
Cc1cc(=O)n2nc(N(C)CC(=O)NCc3cccc(Br)c3)sc2n1 -9.18%
CCOc1ccc(OCC)c(NC(=O)Cn2nc(CC)n3c(cc4sccc43)c2=O)c1 1.61%
Cc1ccc(/C(=C\CN2CCCC2)c2ccccn2)cc1 -13%
Cc1nc2ccc(S(=O)(=O)N(CC(=O)Nc3cccc(F)c3)Cc3ccccc3)cc2s1 -26.7%
CC(C)CCn1c(=O)c2sccc2n2c(CCCC(=O)NCCc3ccccc3)nnc12 -10.6%
O=C1CC(c2ccccc2)c2c(n3ncnc3[nH]c2=O)N1 (configuration not stated) -4.2%
C[C@@H](O)[C@H](N)C(=O)O -6.36% [at 25.2 µM]
CC(C)N(C)C1CCN(S(=O)(=O)c2ccc3[nH]c(=O)ccc3c2)CC1 -6.98%
Cc1cccc(NC(=O)C2CCN(c3nc4ccccc4[nH]3)CC2)c1C -3.38%
O=C(Nc1ccc2nc(SCC(=O)N3CCCC3)sc2c1)c1cccc(Br)c1 -17.9%
Cc1ccc(C)c(CNC(=O)CCn2cccn2)c1 0.653%
Cc1cc(C)cc(N2C(=O)CSC23C(=O)N(CC(=O)Nc2ccc(F)cc2F)c2ccccc23)c1 (configuration not stated) -22.1%
CCCCc1nn2c(=O)cc(COC(=O)c3ccc(NC(=O)CCc4ccccc4)cc3)nc2s1 -9.83%
CCCCN(C)S(=O)(=O)c1ccc(C(=O)Nc2sc3c(c2C(N)=O)CC(C)(C)NC3(C)C)cc1 -12.2%
CCCc1ccc(-c2ccc(C(=O)Oc3ccc(OCC)cc3)cc2)nc1 2.11%
Cc1ccc(CCNC(=O)CS(=O)Cc2nc(-c3ccccc3C)oc2C)cc1 (configuration not stated) -27.1%
CCN(Cc1ccccc1)C(=O)Cn1c(=O)n(-c2ccc(Cl)cc2)c(=O)c2c(C)c(C(=O)N(C)C)sc21 2.58%
O=C(Cn1cnc2c(oc3ccccc32)c1=O)Nc1ccc(F)cc1F 2.4%
